Experimental findings from PMC6919601, “Identification of Plasmodium dipeptidyl aminopeptidase allosteric inhibitors by high throughput screening” (PLoS ONE, 2019) are described below.

The whole screen tested about 110,000 compounds, of which about 230 (0.21%) showed an effect of 50% or more. The list shows a part of the results.
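Further: 30 min substrate incubation versus DMSO and 10 µM JCP410 controls.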

In this assay the target is DPAP1 (Plasmodium falciparum, UniProt Q8IIJ9). The assay can be described thus: primary screen, percent inhibition; read by cleavage of a fluorogenic dipeptide substrate; higher = more effect of the substance. Also on record: species or system P. falciparum D10 trophozoite lysates; single well.
Sequence of DPAP1 (Q8IIJ9 whole entry, looked up): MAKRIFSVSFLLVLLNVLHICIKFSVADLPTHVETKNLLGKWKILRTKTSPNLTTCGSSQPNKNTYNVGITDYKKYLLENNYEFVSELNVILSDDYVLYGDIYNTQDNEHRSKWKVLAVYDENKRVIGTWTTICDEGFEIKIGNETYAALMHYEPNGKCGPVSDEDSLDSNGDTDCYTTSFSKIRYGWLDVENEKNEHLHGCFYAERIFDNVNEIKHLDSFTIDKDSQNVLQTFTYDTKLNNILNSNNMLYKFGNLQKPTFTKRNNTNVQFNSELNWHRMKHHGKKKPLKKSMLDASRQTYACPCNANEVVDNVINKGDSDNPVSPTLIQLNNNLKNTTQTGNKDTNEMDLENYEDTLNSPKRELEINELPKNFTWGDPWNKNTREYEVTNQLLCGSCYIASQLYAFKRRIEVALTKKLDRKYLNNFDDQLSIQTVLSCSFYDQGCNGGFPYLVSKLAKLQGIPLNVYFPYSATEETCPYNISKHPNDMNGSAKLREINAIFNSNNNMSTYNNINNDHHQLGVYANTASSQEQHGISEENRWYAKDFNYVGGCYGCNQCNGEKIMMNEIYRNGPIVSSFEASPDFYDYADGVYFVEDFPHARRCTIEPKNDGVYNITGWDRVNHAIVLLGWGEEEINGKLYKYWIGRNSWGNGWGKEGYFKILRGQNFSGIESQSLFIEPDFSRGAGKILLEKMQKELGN
With `CCCc1nc2nc(C)cc(N3CCN(Cc4ccccc4)CC3)n2n1`, the “% Inhibition @ 10 uM” value is -5.63%.

Regarding `c1ccc2c(c1)nc(N1CCOCC1)n2CCN1CCOCC1`, the “% Inhibition @ 10 uM” value was determined as 7.99%.

For `CCCN1C/C(=C\c2cccc3ccccc23)C(=O)/C(=C/c2cccc3ccccc23)C1`, the “% Inhibition @ 10 uM” value is 4.54%.

As for `CCCCc1ccc(NC(=O)C(c2ccccc2)c2ccccc2)cc1`, the “% Inhibition @ 10 uM” value is recorded as 1.62%.

Consider `CN(C)C(=O)C1C2NC(=S)NC1(C)Oc1ccccc12` (stereo not shown), for which the “% Inhibition @ 10 uM” value is -0.284%.

For `COc1ccc(-n2c(C)nnc2SCc2nc(-c3cccs3)no2)cc1`, the “% Inhibition @ 10 uM” value is -2.21%.

In the case of `CC1CCCCC1NC(=O)CCCc1nnc2n(C)c(=O)c3sccc3n12` (stereo not shown), the “% Inhibition @ 10 uM” value is on record as -8.11%.

For the compound `Cc1ccc2c(CNCc3ccc4c(c3)OCO4)c(C(=O)O)n(Cc3ccccc3C)c2c1`, the “% Inhibition @ 10 uM” value came out at 6.57%.

As for `CCOC(=O)N1CCC(NC(=O)COCc2cc(-c3ccc(F)cc3)on2)CC1`, the “% Inhibition @ 10 uM” value was -2.13%.

On to `COc1cc(CNC(=O)Cn2nc(C(F)(F)F)c(Br)c2C)cc(OC)c1`, for which the “% Inhibition @ 10 uM” value was 0.64%.

`O=C1c2n[nH]c(-c3ccccc3O)c2C(c2ccccc2)N1Cc1ccco1` (stereo not shown): the “% Inhibition @ 10 uM” value was 0.366%.

As to `O=C1C2C3CCC(C3)C2C(=O)N1CNc1ccc(F)cc1` (stereo not shown), the “% Inhibition @ 10 uM” value is on record as -1.12%.

Take `CCC(C)NC(=O)C1=C(C)C(=O)OC12CCC(C)CC2` (stereo not shown): the “% Inhibition @ 10 uM” value was -3.7%.

In the case of `COc1ccccc1CN1CCN(c2ccc(Cl)cc2)CC1`, the “% Inhibition @ 10 uM” value is recorded as 0.708%.

Turning to `O=C(CN1CCN(CCN2C(=O)c3cccc4cccc(c34)C2=O)CC1)c1ccc(Cl)cc1`, the “% Inhibition @ 10 uM” value was 16.8%.

For the compound `COc1cc(CN2CCN(Cc3cccc(Br)c3)CC2)cc2c1OCO2`, the “% Inhibition @ 10 uM” value is listed as -10.1%.

Consider `Cc1c(C)n(C)c2c(C)c3nc(O)cc(C(F)(F)F)c3cc12`, for which the “% Inhibition @ 10 uM” value worked out at 5.13%.

Consider `Cc1cc2nc(COc3cccc(C)c3C)cc(=O)n2o1`, for which the “% Inhibition @ 10 uM” value is -0.495%.

Regarding `O=C(CC(c1ccccc1)c1ccccc1)NCC1OCCc2ccccc21` (stereo not shown), the “% Inhibition @ 10 uM” value was 0.685%.

On to `COc1ccc(NC(=O)CSc2nc3ccccc3o2)cc1OC`, for which the “% Inhibition @ 10 uM” value was -2.8%.

With `COC(=O)C1=C(C)N(Cc2ccc(C)cc2)C(=O)C1`, the “% Inhibition @ 10 uM” value is 4.55%.

Take `O=C(c1cccc(Cl)c1)N1CCC(c2nc(O)c3nnn(Cc4ccsc4)c3n2)CC1`: the “% Inhibition @ 10 uM” value is on record as -1.15%.

With `CCOCCNc1ncnc2onc(-c3ccc(Cl)cc3)c12`, the “% Inhibition @ 10 uM” value is listed as 4.28%.

As to `CCN(CC)S(=O)(=O)c1ccc2ncc(C(=O)NC(C)CCc3ccccc3)c(O)c2c1` (stereo not shown), the “% Inhibition @ 10 uM” value is recorded as 2.79%.

For `C=CCNC(=O)C1CCN(S(=O)(=O)c2ccccc2)CC1`, the “% Inhibition @ 10 uM” value was -5.62%.

For `COc1ccc(CN2CCCCCC2)cc1O`, the “% Inhibition @ 10 uM” value is given as 1.4%.

As for `Cc1cc(CNC(=O)Cc2cccs2)c2ccccc2n1`, the “% Inhibition @ 10 uM” value came to 6.17%.

`O=C(NCCc1nc2ccccc2n1CCCOc1ccccc1Cl)c1ccco1`: the “% Inhibition @ 10 uM” value amounted to 0.486%.

For the compound `O=C(O)C1CCCCC1C(=O)NCc1ccncc1` (stereo not shown), the “% Inhibition @ 10 uM” value is -0.68%.

Turning to `COc1ccc(NC(=O)c2sc3nc(-c4cccs4)ccc3c2N)c(OC)c1`, the “% Inhibition @ 10 uM” value is recorded as 5.89%.

On to `COc1cccc(C(=O)c2cn(CC(=O)NC3CCCCC3)c3nc(C)ccc3c2=O)c1`, for which the “% Inhibition @ 10 uM” value worked out at 2.86%.

As for `CC1CCc2c(C(=O)NCCN3CCOCC3)csc2C1` (stereo not shown), the “% Inhibition @ 10 uM” value amounted to 1.93%.

Consider `CN1CCCN(Cc2ccc(Cl)cc2)CC1`, for which the “% Inhibition @ 10 uM” value was 2.33%.

As to `Cc1ccccc1OCC(=O)Nc1cnn(CCCC(=O)O)c1`, the “% Inhibition @ 10 uM” value came out at 11.2%.

Turning to `COc1ccc(OC)c(C2CC(=O)C3=C(C2)NC(=O)CC3c2ccc3c(c2)OCO3)c1` (stereo not shown), the “% Inhibition @ 10 uM” value is listed as -0.472%.

For the compound `CNC(=S)NCCc1ccc(OC)c(OC)c1`, the “% Inhibition @ 10 uM” value is given as -6.88%.

Regarding `CCOc1nc(-c2ccccc2)ccc1-c1noc(-c2ccco2)n1`, the “% Inhibition @ 10 uM” value came to 2.1%.

`Cc1[nH]c2ccccc2c1C1N2CC3(C)CN1CC(c1ccccc1)(C2)C3=O` (stereo not shown): the “% Inhibition @ 10 uM” value is on record as -3.24%.

Consider `CC12C=CC(C)(O1)C1C(=O)N(c3cc(C(F)(F)F)ccc3Cl)C(=O)C12` (stereo not shown), for which the “% Inhibition @ 10 uM” value came out at 4.65%.

With `CCCCNc1nc(SCC(=O)NCCC(C)C)nc2ccccc12`, the “% Inhibition @ 10 uM” value was -0.112%.

Regarding `Cc1ccc(-c2nc3cc(Cl)ccc3o2)cc1NC(=O)c1cccnc1`, the “% Inhibition @ 10 uM” value is given as -3.92%.

As for `CCC(C)c1ccc(NC(=O)c2ccc(Cl)cc2)cc1` (stereo not shown), the “% Inhibition @ 10 uM” value is given as 5.09%.

Take `Cc1cc(C)cc(N2C(=O)CSC23C(=O)N(CN2CCOCC2)c2ccccc23)c1` (stereo not shown): the “% Inhibition @ 10 uM” value was -0.478%.

Consider `COc1ccc(NC(=O)N2CCN(C)CC2)cc1`, for which the “% Inhibition @ 10 uM” value was 3%.

In the case of `COc1cccc(N2CCN(Cc3nc(N)nc(Nc4ccc(C)c(C)c4)n3)CC2)c1`, the “% Inhibition @ 10 uM” value is given as 6.98%.

For `C/N=C1\S/C(=C\c2ccc(OCc3cccc(C(=O)O)c3)c(Br)c2)C(=O)N1C`, the “% Inhibition @ 10 uM” value was determined as 3.27%.

Turning to `Cc1ccc(OCCSc2nc(-c3ccco3)nc3cc(=O)[nH]n23)cc1Cl`, the “% Inhibition @ 10 uM” value is 1.11%.

Consider `O=C(CSCc1ccc(F)cc1)NC1CCCCCC1`, for which the “% Inhibition @ 10 uM” value was 1.97%.

With `O=C(CSc1nc2ccsc2c(=O)n1CC1CCC(C(=O)O)CC1)Nc1nccs1` (stereo not shown), the “% Inhibition @ 10 uM” value is on record as -1.15%.

For the compound `Cc1cccn2c(=O)c3cc(C(=O)NC4CCCCC4)c(=N)n(CCOCCO)c3nc12`, the “% Inhibition @ 10 uM” value is recorded as -3.5%.

For `CCSc1ncc(Cl)c(C(=O)Nc2nnc(CC(C)C)s2)n1`, the “% Inhibition @ 10 uM” value was -2.85%.

As for `Cc1cccc(S(=O)(=O)Nc2cccc(-c3cn4ccc(C)cc4n3)c2)c1`, the “% Inhibition @ 10 uM” value is 4.81%.

With `CCOCCCNC(=O)Cn1ncc2c1-c1ccccc1OC2`, the “% Inhibition @ 10 uM” value is listed as -2.42%.

In the case of `Cc1ccc2[nH]c(-c3ccccc3N)nc2c1`, the “% Inhibition @ 10 uM” value amounted to 0.162%.

Turning to `Nc1ccc(C(=O)N2N=C(C(F)(F)F)CC2(O)c2ccc(F)cc2)cc1` (stereo not shown), the “% Inhibition @ 10 uM” value is listed as -1.44%.

Take `CCOCCCNc1nc2c(S(=O)(=O)c3ccc(Cl)cc3)nnn2c2ccccc12`: the “% Inhibition @ 10 uM” value was 0.291%.

For `Cc1cc(C)c2c3c(sc2n1)C(=O)N(Cc1ccccc1)C(C)N3` (stereo not shown), the “% Inhibition @ 10 uM” value is on record as -2.57%.

`CCCCNc1ncc2c(n1)CC(c1ccc(C(C)(C)C)cc1)CC2=O` (stereo not shown): the “% Inhibition @ 10 uM” value is reported as 1.74%.

Take `CCc1ccc(OCC(=O)Nc2ccc(CN3CCCCC3)cc2)cc1`: the “% Inhibition @ 10 uM” value is on record as -4.72%.

On to `CSc1ccc(CN2CCC(N3CCCCC3)CC2)cc1`, for which the “% Inhibition @ 10 uM” value was 3.48%.

Take `CC1c2[nH]c3ccccc3c2CCN1S(C)(=O)=O` (stereo not shown): the “% Inhibition @ 10 uM” value is reported as -2.14%.

In the case of `C=C(C#N)NC(=O)[C@H](CC(C)C)NC(=O)c1cccc(Oc2ccccc2)c1`, the “% Inhibition @ 10 uM” value is -5.21%.

For `Cc1ccc(NC(=O)c2cccnc2)c(NC(=O)c2cccnc2)c1`, the “% Inhibition @ 10 uM” value is listed as 2.03%.

As for `CCc1ccc(-c2cc3c(=O)n(CC(=O)NCCCN4CC(C)CC(C)C4)nc(C)n3n2)cc1` (stereo not shown), the “% Inhibition @ 10 uM” value came out at 0.623%.
